# ± gives the standard deviation of the averaged measurements. This is one part of the list.
# Tested on: PfAP2-I AP2 domain 3 (GST-tagged)
# Assay: gcPBM binding intensity (ln(normalized median fluorescence intensity)); higher = stronger DNA binding
# Method in brief: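 The highest Masliner-normalised natural-log median intensity across replicate spots of either probe orientation is reported as binding intensity. GST-tagged P. falciparum DNA-binding domains expressed in E. coli were applied for 1 h to an Agilent 4 × 180k array of primer-extended double-stranded 36-bp intergenic genomic probes plus negative controls, and bound protein was detected with Alexa488 anti-GST antibody and scanned at 488 nm.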
row,Sequence,gcPBM binding intensity (ln)
1,ATATATATATATAATACACACTAAAGTAACATAATA [CACACA_site5580],9.08 ± 0.014
2,TATATATATAAATACACACACACATATATATATATA [CACACA_site4585],9.35 ± 0.48
3,GTATATAATTTATATTGTACGCATATTATTATCATT [XGTACX_site7277],7.88 ± 0.2
4,TCATTTTACAGATGTGCATGTGAATCAATCTATTTA [TGCATGCA_site787],7.78 ± 0.54
5,AATATACAAATTACAAGTACAAATCAATATTATATG [XGTACX_site7521],7.59 ± 0.53
6,AAAAAAAAAAAAAAAACACACAAACAAATGAATAAA [CACACA_site5769],8.76 ± 0.66
7,TGTAGTTTTTATTTATGTACGCATAACATAATTTAA [XGTACX_site104],8.01 ± 0.071
8,AGAATTTAGAAACAATGTTGTATATGTAATACCTTT [XGTACX_negctrl_site149],7.46 ± 0.61
9,TATATATATAAAAAAAGTACGTATTTAATAAAAATA [XGTACX_site4992],8.34 ± 0.39
10,GATATTATGTGTTTGGTATTTCGATCTTGTCAGGAC [CACACA_negctrl_site426],7.69 ± 0.65
11,ATTTCTATATATTGTGCATGCCATTACACCAAATAT [TGCATGCA_site813],8.45 ± 0.79
12,AGAAAGGATATTATATGTACATATCTTTGTATTTTT [XGTACX_site5040],7.54 ± 0.58
13,CATACCCATAAACACACACACATATATACCTATATA [CACACA_site4745],7.87 ± 0.44
14,TTTTTAATTCAAAAAACTGTATGTTATATGTCAAAT [CACACA_negctrl_site72],7.66 ± 0.44
15,TTCATTTTATTTTAAGTGCATATTTTTATTTTTTTG,8.82 ± 0.099
16,TAGTATGATAACTTGGGTACATAAATATGGAGTATC [XGTACX_site1296],8.06 ± 0.51
17,TATATAAATAAAAAAAGTACATTACTTTTTAATTTA [XGTACX_site285],7.4 ± 0.4
18,ATCATACCTTTTAATGTACACACATTTCTTTTTTGT [CACACA_site8198],8.15 ± 0.58
19,ATGGAATAATCACGTACACACAAGAAAAAAAAAAAT [CACACA_site527],8.01 ± 0.5
20,GGATAATATATTAGAACACACATATATATGTAAAAA [CACACA_site185],7.9 ± 0.64
21,ATTACAAATACAAACACACAAATGTTTTTCATTCAA [CACACA_site7639],7.63 ± 0.39
22,TTTTATTTGACAAGCACACACTTAAATATATATATA [CACACA_site5792],9.1 ± 0.071

row,Sequence,gcPBM binding intensity (ln)
1,AAACAAAAAATAAAATGTACATTTATTACGATAAGT [XGTACX_site2392],8.14 ± 0.57
2,TAGTATAATATGAACACACACACACCGACAAAAAAA [CACACA_site5151],8.14 ± 0.55
3,ATATAATTTATATATTCACACAAGGAATACTTTTAT [CACACA_site5506],7.67 ± 0.44
4,AATTGAAAAAGAAATTGTACATTTTATTTTTATTAT [XGTACX_site1973],7.54 ± 0.46
5,ATACATATATATATATGTACATATGTATTTTTTATT [XGTACX_site105],7.84 ± 0.34
6,AATAAAATATATTCCTGTACATATGATTCTTTTTTT [XGTACX_site7980],7.63 ± 0.49
7,TTTACATATTTATATACACACTTTTGCGTGCGTGGT [CACACA_site6647],7.94 ± 0.51
8,ACTATACAGTTATACACACACATATATCTATAATAT [CACACA_site6283],8.16 ± 0.51
9,AATGTACAAATACGTACACACATATATATATATATA [CACACA_site1542],9.44 ± 0.35
10,GTATAAAATATTTTATGTACATAATATATATATATA [XGTACX_site2489],9.01 ± 0.16
11,AAATAAAGGAAATGTATATCAACATTAAAATAAGGC [CACACA_negctrl_site441],8.08 ± 0.68
12,TTTTACAATAACAATACACACTATAATATGTAAATA [CACACA_site6772],7.88 ± 0.43
13,CATTTAAAATTTGTTTGTACATATATATATATATAT [XGTACX_site6729],9.34 ± 0.67
14,ATATATATATATATATGTACTTATGTCATCATTAAA [XGTACX_site5316],9.65 ± 0.38
15,TATATGTATGTTTGTGTGCACACATAAATATTATAT,9.79 ± 0.042
16,ACGAAGTATATGAATACACACATATTTTTAATGAAA [CACACA_site4070],7.4 ± 0.67
17,TTTTTAATCAGAAATATTTATTAAAGAATTTTATAG [GTGCAC_negctrl_site725],7.32 ± 0.34
18,ATATACATAATTTGGAGTACAATATCATATAAATAT [XGTACX_site6334],7.99 ± 0.11
19,AGTAAATTTGATGGTCGTACAAAAAAAAAGTAGGAC [XGTACX_site2600],8.12 ± 0.64
20,CTTTTTTTTTTGGGGGTGCATGCAAGACATATATTT [GTGCAC_site9660],10.2 ± 0.11
21,ACATAACTTATATATACACACAATACAAATATATAT [CACACA_site2774],7.92 ± 0.56
22,ATAATTTCTATTTCACAAAAAAAAAAAAAAAAAAAA [CACACA_negctrl_site1012],8.1 ± 0.98

row,Sequence,gcPBM binding intensity (ln)
1,ACTAAAAGGCTTAAATGTACATATTATATATATATA [XGTACX_site5897],9.09 ± 0.14
2,GAATAATTAAAAGGTAGTACAAAGGTTATCAAAAGG [XGTACX_site8496],8.15 ± 0.52
3,GATATGATTATGTGATGGTGTTTTTGATAGATATTT [CACACA_negctrl_site1445],7.76 ± 0.49
4,AGAAAACCGAAAGAGACACACAACATGTCGATTTAG [CACACA_site3764],7.48 ± 0.85
5,TTGTTCTTTTGAAAGGTGCAAAAGAAAAATAATTAA,11.1 ± 0.54
6,ATATATATATGTTAGGTGCATATATATTTTGTGGAT [GTGCAC_site9964],10.7 ± 0.59
7,ATAAAAACTACATTCACACAAAAAAAAATCTACAAA [CACACA_site6109],7.55 ± 0.46
8,AATAATATTAATAAAAGTACATGTGTAATATATATA [XGTACX_site5922],8.46 ± 0.67
9,ATAAAGATAATATATGCACACATATAAATATATAAA [CACACA_site9153],8.91 ± 0.33
10,ATATATATAATATATTGTACATATAATATATATATA [XGTACX_site4792],8.84 ± 0.042
11,ACATCTAGGCTTATTTTATGATACATGTGAATATAT [TGCATGCA_negctrl_site325],7.67 ± 0.72
12,GTTTTTGAGTAGTACACACACAATAAGGATGGATTC [CACACA_site3192],8.29 ± 0.19
13,TCAATAAATATACATACATGCATACATACATACATA [TGCATGCA_site197],7.99 ± 0.54
14,GAACATTTATTGTGTGTGCACAATTCTTTTTTAACC [GTGCAC_site9697],10.2 ± 0.14
15,TGTGTTAATATGAATTTAAACATAAATAAATAAATA [CACACA_negctrl_site1589],7.84 ± 0.72
16,AATTTTCAATAGTATACACACAATTATATATATATA [CACACA_site1116],9.37 ± 0.38
17,TCTTTTCTCGGAAGGGTGCAAGGAATTAATGAAATA [GTGCAC_site9706],9.64 ± 0.13
18,TATATATGTAGACGTTGTACTTTTTTGTAAGTTTAA [XGTACX_site5638],7.79 ± 0.26
19,CATGACATATCCTGTAGTACAACGTATATATAAGAT [XGTACX_site2577],7.8 ± 0.61
20,AAAATAAAATCATAAAGTACAAAAAGAAAATAAAAA [XGTACX_site7376],7.92 ± 0.38
21,TGTGTCAAGTTTAATAAACGCATATAATATATATGA [CACACA_negctrl_site607],7.64 ± 0.49
22,TTTAAATTTTTATATTGTACTTTATTTATTTATTTA [XGTACX_site869],7.56 ± 0.51

row,Sequence,gcPBM binding intensity (ln)
1,ATGTTTAATTAAATATGTACTTATTATATTATATGT [XGTACX_site8137],7.74 ± 0.41
2,TTTAATTTTTATATAACACACATATTGTAATTATGT [CACACA_site4566],7.57 ± 0.41
3,AGGAATCTACATATATGTACATATATTGATATATTT [XGTACX_site137],7.68 ± 0.45
4,AATGTTTAATATAACGCATGCCTTAATATAGAATGC [TGCATGCA_site463],8 ± 0.74
5,TATTTTTATAAAAACTGTACATAATAAATAAAAATA [XGTACX_site4743],7.86 ± 0.41
6,AATCAAAGTAATTTAACACACAATTTTAATACTGTT [CACACA_site7169],7.55 ± 0.58
7,TTATATGTTTCTTCACGTACGTATAAAAATGAACTT [XGTACX_site1764],7.94 ± 0.58
8,TATCATGTGCGTGCGTGTACTTAACACACATAATAT [XGTACX_site2404],8.31 ± 0.54
9,TCATTTATTTTAAGGTGTACCGTTTAAAATCACAAA [XGTACX_site3243],7.78 ± 0.32
10,ATATTGACAAATATTACACACATATATATATATATA [CACACA_site4079],9.31 ± 0.41
11,TTGTTCATTATGCACAGTACATAAAAAGTAAAAAAA [XGTACX_site2403],10 ± 0.65
12,TTTTTTTGCGCGGGAAGAATAAAATTTATAGAATAT [TGCATGCA_negctrl_site306],8.31 ± 0.63
13,CAGACATTAATAAGTAGTACACAATAATTGACTAGG [XGTACX_site854],8.11 ± 0.31
14,AATTTACACGTACGTGTACACACAAAAATATGTTTT [CACACA_site8242],8.55 ± 0.34
15,TTTCTAAATAATATACACAAAAAAATAAAACACTAA [TGCATGCA_negctrl_site43],8.09 ± 0.38
16,TGAAAAGATAAAAAATGTACATATATATTATATATA [XGTACX_site5678],7.82 ± 0.54
17,ATACACAATTATTTTCCTATTATGCAAGCAAATTTA [CACACA_negctrl_site1176],8 ± 0.65
18,GTTTAACTGTTTTATACACACAATGTAGACAATAAA [CACACA_site8967],7.84 ± 0.5
19,TAAATACATTGACACACACACAAATATGTACATACA [CACACA_site7371],8.04 ± 0.31
20,ACTTGATTACACAACCACAAGTAATTGAAATTATTT [XGTACX_negctrl_site297],8.05 ± 0.57
21,GTACAAAAAAAGTGTACACAAAGTAAGACTTTAATT [CACACA_site5068],8.26 ± 0.43
22,CACTGTAAATAGAAAGTGCAAAAATTGTAAATAAAA [GTGCAC_site9980],9.75 ± 0.26

# — the supplement of paper PMC11417369
